{"source": "patent US20260217856A1", "about": "(MIE UNIVERSITY, published 2026)", "binders": {"B1": {"name": "PRAME-zG-m1 (other)", "chain": "QVQLQVQLVQSGAEVKKPGSSVKVSCKASGGTFSSYAISWVRQAPGQGLEWMGGIIPIFGTANYAQKFQGRVTITADESTGTAYMELSSLRSEDTAVYYCARHHSNYYYYGMDVWGQGTTVTVSRGGGGSGGGGSGGGGSMASYELTQPLSVSVALGQTARITCGGNNIGSKNVHWYQQKPGQAPVLVIYRDSNRPSGIPERFRGRNSGNTARLTISRAQAGDEADYYCQVWDSSHVFGTGTKVTVLGQPKANPTVTLFPPSSEELQANKATLVCLISDFYPGAVTVAWKADGSPVKAGVETTKPSKQSNNKYAASSYLSLTPEQWKSHRSYSCQVTHEGSTVEKTVAPTECSARQTRFWVLVVVGGVLACYSLLVTVAFIIFWVRL[about 120 residues left out here]RSQCMWPRETQLLLEVPPSTEDARSCQFPEEERGERSAEEKGRLGDLWV"}, "B2": {"name": "PRAME-zG-m2 (other)", "chain": "QVQLQVQLVQSGAEVKKPGSSVKVSCKASGGTFSSYAISWVRQAPGQGLEWMGGIIPIFGTANYAQKFQGRVTITADESTGTAYMELSSLRSEDTAVYYCARHHSNYYYYGMDVWGQGTTVTVSRGGGGSGGGGSGGGGSMASYELTQPLSVSVALGQTARITCGGNNIGSKNVHWYQQKPGQAPVLVIYRDSNRPSGIPERFRGSNSGNRARLTISRAQAGDEADYYCQVWDSSHVFGTGTKVTVLGQPKANPTVTLFPPSSEELQANKATLVCLISDFYPGAVTVAWKADGSPVKAGVETTKPSKQSNNKYAASSYLSLTPEQWKSHRSYSCQVTHEGSTVEKTVAPTECSARQTRFWVLVVVGGVLACYSLLVTVAFIIFWVRL[about 120 residues left out here]RSQCMWPRETQLLLEVPPSTEDARSCQFPEEERGERSAEEKGRLGDLWV"}, "B3": {"name": "PRAME-zG-Km3 (other)", "chain": "QVQLQVQLVQSGAEVKKPGSSVKVSCKASGGTFSSYAISWVRQAPGQGLEWMGGIIPIFGTANYAQKFQGRVTITADESTGTAYMELSSLRSEDTAVYYCARHHSNYYYYGMDVWGQGTTVTVSRGGGGSGGGGSGGGGSMASYELTQPLSVSVALGQTARITCGGNNIGSKNVHWYQQKPGQAPVLVIYRDSNRPSGIPERFSGKNSGNKAKLTISRAQAGDEADYYCQVWDSSHVFGTGTKVTVLGQPKANPTVTLFPPSSEELQANKATLVCLISDFYPGAVTVAWKADGSPVKAGVETTKPSKQSNNKYAASSYLSLTPEQWKSHRSYSCQVTHEGSTVEKTVAPTECSARQTRFWVLVVVGGVLACYSLLVTVAFIIFWVRL[about 120 residues left out here]RSQCMWPRETQLLLEVPPSTEDARSCQFPEEERGERSAEEKGRLGDLWV"}, "B4": {"name": "MAGE-A4-zG-m2 (other)", "chain": "QVQLQVQLVQSGAEVKKPGSSVKVSCKASGGTFSSYAISWVRQAPGQGLEWMGGIIPIFGTANYAQKFQGRVTITADKSTSTAYMELSSLRSEDTAVYYCARSPRRAYHDAFDIWGQGTMVTVSSGGGGSGGGGSGGGGSSYELTQPPSMSVAPGKTASITCGGDHIGSKSVHWYQQKPGQAPVLVVYDDSDRPSGIPERFRGRNRGNTARLTISGTQAMDEADYYCLAWDSSTAIFGGGTQLTVLVGQPKANPTVTLFPPSSEELQANKATLVCLISDFYPGAVTVAWKADGSPVKAGVETTKPSKQSNNKYAASSYLSLTPEQWKSHRSYSCQVTHEGSTVEKTVAPTECSARQTRFWVLVVVGGVLACYSLLVTVAFIIFWVRL[about 120 residues left out here]RSQCMWPRETQLLLEVPPSTEDARSCQFPEEERGERSAEEKGRLGDLWV"}}, "test_in_all_cases": "cell-based or functional assay", "key": {"[1]": {"target": "complex of a PRAME derived peptide and HLA-A24 (human)"}, "[2]": {"target": "complex of a PRAME derived peptide and HLA-A24 (human)", "remark": "listed apart in the source"}, "[3]": {"target": "complex of a MAGE-A4 derived peptide and HLA-A2 (human)"}}, "note": "Read-outs that look alike come from different tables or passages of the source.", "data": [{"binder": "B1", "values": [{"measurement": "cytotoxic activity, effector:target 1:1, SK-MEL-124 target cells", "setting": "[1]", "result": "2.37 ratio to WT CAR-T (1.00)"}, {"measurement": "cytotoxic activity, effector:target 3:1, SK-MEL-124 target cells", "setting": "[1]", "result": "2.96 ratio to WT CAR-T (1.00)"}]}, {"binder": "B2", "values": [{"measurement": "IFNγ production, co-culture with SK-MEL-124", "setting": "[1]", "result": "0.56 ratio to WT CAR-T (1.00)"}, {"measurement": "cytotoxic activity, effector:target 3:1, SK-MEL-124 target cells", "setting": "[1]", "result": "1.84 ratio to WT CAR-T (1.00)"}]}, {"binder": "B3", "values": [{"measurement": "IFNγ production, co-culture with SK-MEL-124", "setting": "[2]", "result": "0.87 ratio to WT CAR-T (1.00)"}, {"measurement": "cytotoxic activity, effector:target 1:1, SK-MEL-124 target cells", "setting": "[2]", "result": "1.71 ratio to WT CAR-T (1.00)"}, {"measurement": "cytotoxic activity, effector:target 3:1, SK-MEL-124 target cells", "setting": "[2]", "result": "1.16 ratio to WT CAR-T (1.00)"}]}, {"binder": "B4", "values": [{"measurement": "IFNγ production, co-culture with SK-MEL-37", "setting": "[3]", "result": "0.47 ratio to WT CAR-T (1.00)"}, {"measurement": "cytotoxic activity, effector:target 1:1, SK-MEL-37 target cells", "setting": "[3]", "result": "1.6 ratio to WT CAR-T (1.00)"}, {"measurement": "cytotoxic activity, effector:target 3:1, SK-MEL-37 target cells", "setting": "[3]", "result": "1.41 ratio to WT CAR-T (1.00)"}]}]}
